Measurements published in PubChem BioAssay AID504332 (National Center for Advancing Translational Sciences (NCATS), 2011).
Where “and” joins values, the source holds several entries; their conditions need not be identical. Equal entries are not always repeated. About 31,000 (8.9%) of roughly 350,000 compounds were called active. Inconclusive results, whose numbers are uncertain, are shown with a selection of clear calls. Calls come from the whole dose curve; as a rule, active = well fitted inhibition curve with a large enough effect; inconclusive = small, poorly fitted or top-dose-only effect; inactive = no such curve, though single readings can be large or run the other way. A potency beside an inconclusive call is a rough fit, not a confirmed value. More than one record can exist for a structure, and the calls need not agree.

Each compound was assayed against Histone-lysine N-methyltransferase EHMT2 (Homo sapiens) (UniProt Q96KQ7) (assay: qHTS Assay for Inhibitors of Histone Lysine Methyltransferase G9a). Settings: G9a H3K9 monomethylation, AlphaScreen, 2 h; activity, negative = inhibition: at 59 µM (top of the series) unless noted.
Chain of UniProt Q96KQ7 (Q96KQ7 whole entry, looked up): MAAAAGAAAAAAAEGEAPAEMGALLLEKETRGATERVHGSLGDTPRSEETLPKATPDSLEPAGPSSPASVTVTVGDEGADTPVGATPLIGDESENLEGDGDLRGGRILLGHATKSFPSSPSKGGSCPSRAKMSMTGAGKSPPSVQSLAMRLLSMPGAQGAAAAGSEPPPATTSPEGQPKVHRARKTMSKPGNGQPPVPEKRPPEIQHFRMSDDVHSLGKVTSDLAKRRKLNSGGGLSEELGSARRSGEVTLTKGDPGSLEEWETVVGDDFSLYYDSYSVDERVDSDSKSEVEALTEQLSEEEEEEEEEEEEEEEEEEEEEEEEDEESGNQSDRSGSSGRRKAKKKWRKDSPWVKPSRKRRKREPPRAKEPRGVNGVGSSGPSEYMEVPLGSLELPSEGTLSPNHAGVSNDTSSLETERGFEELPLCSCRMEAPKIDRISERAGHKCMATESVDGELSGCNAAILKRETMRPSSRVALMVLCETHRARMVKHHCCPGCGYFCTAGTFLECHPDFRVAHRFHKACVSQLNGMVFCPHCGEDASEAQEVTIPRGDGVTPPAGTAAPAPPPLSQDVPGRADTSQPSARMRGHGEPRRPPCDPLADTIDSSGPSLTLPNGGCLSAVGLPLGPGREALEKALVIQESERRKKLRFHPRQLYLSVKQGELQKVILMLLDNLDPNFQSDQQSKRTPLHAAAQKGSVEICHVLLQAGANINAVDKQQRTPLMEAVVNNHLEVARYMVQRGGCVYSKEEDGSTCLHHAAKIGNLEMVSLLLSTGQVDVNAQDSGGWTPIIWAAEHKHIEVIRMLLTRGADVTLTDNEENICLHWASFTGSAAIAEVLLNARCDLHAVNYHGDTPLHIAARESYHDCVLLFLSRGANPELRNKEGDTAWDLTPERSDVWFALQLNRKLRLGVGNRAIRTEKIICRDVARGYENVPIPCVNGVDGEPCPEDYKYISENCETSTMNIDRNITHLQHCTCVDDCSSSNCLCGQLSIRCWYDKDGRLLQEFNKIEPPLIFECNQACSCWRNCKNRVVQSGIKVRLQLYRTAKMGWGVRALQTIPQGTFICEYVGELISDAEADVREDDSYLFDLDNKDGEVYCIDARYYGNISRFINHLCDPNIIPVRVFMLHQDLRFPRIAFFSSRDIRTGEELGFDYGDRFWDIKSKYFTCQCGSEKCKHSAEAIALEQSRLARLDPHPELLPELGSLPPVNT
Procedure, shortened: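 Compounds were preincubated with 20 nM G9a for 15 min, after which biotinylated H3K9 peptide (500 nM) and SAM (20 uM) started a 2 h room-temperature reaction. Monomethylated product was quantified by antibody-based AlphaScreen chemiluminescence.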
% is set by controls: 0 for no effect and ±100 for the full control effect; potency is the fitted concentration of half-maximal effect; tags give direction and shape of the fitted curve.
Note: nearly all actives have a fitted effect of over 75% in size.

| SMILES | Potency | activity, negative = inhibition |
| --- | --- | --- |
| O=C(O)C1=CC(=C(c2ccc(O)c(C(=O)O)c2)c2ccc(O)c(C(=O)O)c2)C=CC1=O | active: 112 nM and active: 1.12 µM |  |
| COc1ccccc1NS(=O)(=O)c1cc([N+](=O)[O-])ccc1N/N=C/c1c[nH]c2ccccc12 | inconclusive: 1.41 µM [inhibitor, partial curve, poor fit] |  |
| CC(=O)Nc1ccc(S(=O)(=O)N2CCN(c3nnnn3-c3ccccc3)CC2)cc1 | inconclusive: 10 µM [inhibitor, partial curve, poor fit] |  |
| N#C/C(=C\c1ccncc1)c1nc2ccccc2[nH]1 | inconclusive: 89.1 µM [inhibitor, partial curve, poor fit] |  |
| COc1ccc(C(=O)Nc2nnc(S(=O)(=O)N3CCC(C)CC3)s2)cc1OC | inactive and active: 12.6 µM |  |
| O=C(c1cccc(F)c1)N1CCC(c2c[nH]c3ccccc23)(c2c[nH]c3ccccc23)CC1 | inactive |  |
| CCOc1ccc(C(CC(=O)Nc2cc(C)c(Cl)cc2OC)N2Cc3ccccc3C2=O)cc1OC (centres undefined) | inconclusive: 7.08 µM [inhibitor, partial curve, poor fit] |  |
| O=C(NCCCN1CCCC1)c1ccc2c(Cl)c3c(nc2c1)CCCC3 | inconclusive: 89.1 µM [inhibitor, single point] |  |
| CC(=O)Nc1ccc(S(=O)(=O)Nc2nc3ccc(C)cc3s2)cc1 | inconclusive: 89.1 µM [inhibitor, single point] |  |
| Cc1ccc(OCC(=O)Nc2c(C)nn(-c3ccccc3)c2C)c(Br)c1 | inconclusive: 89.1 µM [inhibitor, single point] |  |
| O=C(OCC(=O)N1N=C(c2ccc(Cl)cc2)CC1c1ccco1)c1ccccc1O (centres undefined) | active: 17.8 µM |  |
| CCn1c(C)c(C)c2cc(C(=O)NCCN3CCOCC3)ccc21 | inconclusive: 56.2 µM [inhibitor, partial curve, poor fit] |  |
| O=c1c2sccc2nc(SCc2cc(=O)n3cc(Cl)ccc3n2)n1Cc1ccccn1 | inactive |  |
| COCCn1c(=O)cnc2cnc(N3CCNCC3)nc21 |  | inactive: -41% [at 12.7 µM] |
| Cc1ccc(C)n1-c1ccc(-c2nnco2)cc1 | active: 44.7 µM |  |
| CCOC(=O)C1=C(CN2CCCCC2)NC(=O)NC1c1ccc(C)cc1 (centres undefined) | inconclusive: 35.5 µM [inhibitor, partial curve, poor fit] |  |
| COc1cccc(CNS(=O)(=O)c2ccc(N3CCCCS3(=O)=O)cc2)c1 |  | inactive: -0.0272% [at 12.7 µM] |
| CCn1c(=S)sc2c(=O)n(-c3ccccc3)c(=S)[nH]c21 | active: 10 µM |  |
| C#Cc1ccc([C@H]2C=C(C(=O)N3CCN(Cc4ccccc4)CC3)O[C@@H](OCc3ccc(CO)cc3)C2)cc1 |  | inconclusive: -85.6% [inhibitor] |
| Cc1ccc(CNC(=O)c2sc3nc(-c4ccc(F)cc4)ccc3c2N)cc1 | inconclusive: 8.91 µM [inhibitor, partial curve, poor fit] |  |
| Cn1c(CNc2nc(-c3ccccc3)cs2)nnc1SCC(=O)OC1CCCCC1 | inconclusive: 39.8 µM [inhibitor, single point] |  |
| CC(C)C(NC(=O)C12CC3CC(CC(C3)C1)C2)C(=O)NC1=NCCS1 (centres undefined) |  | inactive: 43.3% [at 12.7 µM] |
| COc1ccc(-c2[nH]ncc2CN2CCCN(c3ccccc3)CC2)c(F)c1 | inconclusive: 35.5 µM [inhibitor, partial curve] |  |

| SMILES | Potency | activity, negative = inhibition |
| --- | --- | --- |
| CC(C)OC(=O)Nc1ccc2c(c1)N(C(=O)N1CCN(C)CC1)c1ccccc1CC2 |  | inconclusive: -100% [inhibitor] [at 12.7 µM] |
| Cc1ccc(SCCC(=O)OCC(=O)Nc2ccc(C(N)=O)cc2)cc1 | inconclusive: 25.1 µM [inhibitor, single point] |  |
| CC1(C)CC2(CC(c3ccc(F)cc3)c3ccc(O)cc3O2)NC(=S)N1 (centres undefined) | inconclusive: 70.8 µM [inhibitor, partial curve, poor fit] |  |
| CCc1ccccc1OCC(=O)Nc1cc(S(=O)(=O)N2CCOCC2)ccc1N1CCCCC1 |  | inactive: -6.57% [at 0.501 µM] |
| Cc1nn(C)c(C)c1S(=O)(=O)Nc1ccc2c(c1)OCO2 | active: 50.1 µM |  |
| Cc1c(C(=O)N2CCN(S(=O)(=O)c3cc(F)ccc3F)CC2)oc2ccccc12 | inconclusive: 1.26 µM [inhibitor, single point] |  |
| Cc1sc2ccc3sccc3c2[n+]1C | active: 3.55 µM |  |
| COc1ccc(C2CC(=O)c3c([nH]c(C(=O)OC4CCCCCC4)c3C)C2)cc1OC (centres undefined) | inactive |  |
| C/C(=N\NC(=S)Nc1ccccc1C)c1cc2ccccc2o1 |  | inconclusive: -66.7% [inhibitor] |
| O=C(NCC(=O)N(Cc1cccs1)C(C(=O)NC1CCCCC1)c1ccco1)c1ccco1 (centres undefined) | inactive |  |
| COc1ccc(NC(=O)C(C)n2c(C)c3cnn(-c4ccccc4)c(=O)c3c2C)cc1Cl (centres undefined) | inactive |  |
| Cc1onc(-c2ccccc2)c1C(=O)Nc1ccc(N2CCOCC2)cc1 | inconclusive: 2.82 µM [inhibitor, single point] |  |
| CCN(C(=O)COC(=O)Cc1c[nH]c2ccccc12)c1c(N)n(Cc2ccccc2)c(=O)[nH]c1=O | inconclusive: 50.1 µM [inhibitor, partial curve] |  |
| CCOC(=O)c1cc(-c2ccc(F)cc2)n(CCC(=O)NCc2ccccc2OC)c1C | inconclusive: 14.1 µM [inhibitor, partial curve, poor fit] |  |
| CCOc1ccc(-c2nnc(-c3ccco3)o2)cc1OCC | inconclusive: 3.55 µM [inhibitor, partial curve, poor fit] |  |
| O=C(Cn1ncc2c([nH]c3ccccc32)c1=O)NCc1cccc(Cl)c1 | inactive |  |
| O=C(NCCc1ccccc1)c1ccc(CSc2nc3ccncc3n2Cc2ccccc2F)cc1 | inconclusive: 5.01 µM [inhibitor, full curve, poor fit] |  |
| CC(C)[C@H]1CN=C2N(CCNC(=O)CCC3CCCCC3)[C@H](Cc3ccc(O)cc3)CN21 | inactive |  |
| CC(C)COc1ccc(-c2nonc2NC(=O)c2ccc(F)cc2)cc1 | inconclusive: 3.98 µM [inhibitor, single point] |  |
| O=C(CSc1ccc(-c2ccncc2)nn1)c1ccc(Cl)cc1 | inactive |  |
| CCN(C(=O)c1nn(-c2ccc(C)cc2)c(=O)c2c1c1ccccc1n2C)c1ccc(F)cc1 | active: 1.26 µM |  |
| O=c1[nH]c(CSc2ncc(-c3ccc(F)cc3)n2Cc2ccco2)nc2ccccc12 | inconclusive: 25.1 µM [inhibitor, single point] |  |
| O=C(Nc1nnc(S(=O)(=O)N2CCCC2)s1)c1ccccc1F | inconclusive: 3.16 µM [inhibitor, partial curve, poor fit] |  |

| SMILES | Potency | activity, negative = inhibition |
| --- | --- | --- |
| CC(C)(CN1CCN(C(c2ccccc2)c2ccccc2)CC1)NS(=O)(=O)c1ccccc1 | inactive |  |
| CCOC(=O)c1cnc2c(-c3ccc(Cl)cc3)cnn2c1C | inactive |  |
| CC(=O)N1c2c(cc(Br)cc2S(=O)(=O)N2CCN(c3ccccc3F)CC2)CC1C (centres undefined) | inactive |  |
| Cc1cc(-c2n[nH]c(=S)o2)c(C)n1-c1ccccc1 | active: 3.98 µM |  |
| C=CCC(CC=C)(NC(=O)c1ccccc1C(=O)O)c1ccccc1 | inconclusive: 28.2 µM [inhibitor, single point] |  |
| CC(=O)N1CCC(N(Cc2ccco2)C(=O)Nc2ccc(Br)cc2F)CC1 | inactive |  |
| CCc1nc(Nc2ccc(N3CCN(C(C)=O)CC3)cc2)c2oc3ccccc3c2n1 | inconclusive: 35.5 µM [inhibitor, full curve, poor fit] |  |
| CCCNC(=O)c1[nH]c(C)c(C(C)=O)c1C | inactive |  |
| Cc1ccc(S(=O)(=O)N2CCCCC2)cc1NC(=O)C1CCC1 | inconclusive: 7.08 µM [inhibitor, single point] |  |
| CCOC(=O)C1CCCN(Cc2cn3c(-c4ccc(Br)cc4)nnc3s2)C1 (centres undefined) | inactive |  |
| O=C(CNCCN1CCOCC1)Nc1ccccc1Sc1ccccc1 | active: 1.78 µM |  |
| COc1ccc(OC)c(C(c2nnnn2CC2CCCO2)N2CCN(C3CCCC3)CC2)c1 (centres undefined) | inconclusive: 56.2 µM [inhibitor, partial curve, poor fit] |  |
| O=C(c1nc(-c2ccccc2)n(-c2ccccc2)n1)N1CCN(S(=O)(=O)c2ccccc2)CC1 | inconclusive: 0.1 µM [inhibitor, full curve, poor fit] |  |
| COc1ccc(C(=O)NNc2ncnc3c2cnn3-c2ccccc2)cc1 | inactive |  |
| Cc1cc(OCCN2CC(C)OC(C)C2)ccc1[N+](=O)[O-] (centres undefined) | active: 12.6 µM |  |
| O=C(CC1N=C2c3ccccc3N=C(SCc3ccccc3Cl)N2C1=O)NCc1cccs1 (centres undefined) | inactive |  |
| NS(=O)(=O)c1ccc(CCNC(=S)Nc2ccc(S(N)(=O)=O)cc2)cc1 | inconclusive: 11.2 µM [inhibitor, partial curve, poor fit] |  |
| COC(=O)c1ccc(CSc2nc3c(c(=O)n2-c2ccc(F)cc2)SCC3)o1 | inconclusive: 39.8 µM [inhibitor, single point] |  |
| CC(C)c1ccc(N2C(=O)CC(Sc3ncccn3)C2=O)cc1 (centres undefined) | inactive |  |
| O=C1/C(=C/c2ccc(O)cc2)CCc2ccc([N+](=O)[O-])cc21 | inconclusive: 89.1 µM [inhibitor, single point] |  |
| COc1ccc2c(c1)CCC/C2=N\NC(=O)c1ccoc1C | inactive |  |
| COc1ccc(NC2CCCN(C(=O)c3cc(C)nc4cc(F)ccc34)C2)cc1 (centres undefined) | inconclusive: 89.1 µM [inhibitor, single point] |  |
| CCCc1n(CC(O)COC2CCCCC2)c2ccccc2[n+]1C (centres undefined) |  | inconclusive: -65.5% [inhibitor] [at 12.7 µM] |
